In one experiment the target is Human IL-17A (human, UniProt Q16552 24-155). The experiment is described as follows: ELISA.
For a further experiment, the target named is T1, Mouse IL-17A (mouse, UniProt Q62386 26-158).
T1 chain: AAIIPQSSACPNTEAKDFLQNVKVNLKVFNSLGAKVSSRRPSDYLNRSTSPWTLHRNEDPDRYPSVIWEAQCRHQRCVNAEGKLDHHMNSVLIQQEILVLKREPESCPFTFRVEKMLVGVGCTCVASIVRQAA
The experiment is described as follows: ELISA.

This passage reports EC50 results from US20160340422A1 (published 2016).

Human IL-17A, sequence (Q16552 24-155): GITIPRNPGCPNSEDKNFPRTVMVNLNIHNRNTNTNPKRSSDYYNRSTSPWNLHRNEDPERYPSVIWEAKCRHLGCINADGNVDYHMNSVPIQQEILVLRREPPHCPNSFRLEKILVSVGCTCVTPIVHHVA

B1: Bifunctional fusion protein C (other)
heavy: QVQLKESGPGLVQPSQTLSLTCTVSGFSLTNYYVHWVRQPPGKGLEWMGGVWNDGDTSYNSVLRSRLSITRDTSKSQVLLKMSSLQTEDTATYYCAREGREGFVGYYVMDAWGPGASVTVSSAKTTAPSVYPLAPVCGDTTGSSVTLGCLVKGYFPEPVTLTWNSGSLSSGVHTFPAVLQSDLYTLSSSVTVTSSTWPSQSITCNVAHPASSTKVDKKIEPRGPTIKPCPPCKCPAPNLLGGPSVFIFPPKIKDVLMISLSPIVTCVVVDVSEDDPDVQISWFVNNVEVHTAQTQTHREDYNSTLRVVSALPIQHQDWMSGKEFKCKVNNKDLPAPIERTISKPKGSVRAPQVYVLPPPEEEMTKKQVTLTCMVTDFMPEDIYVEWTNNGKTELNYKNTEPVLDSDGSYFMYSKLRVEKKNWVERNSYSCSVVHEGLHNHHTTKSFSRTPGK
light: [about 120 residues skipped]GGGSGGGGSGGGGSGGGGSGGGGSDIQMTQSPSFLSASVGERVTLSCKASQNINKYLDWFQQKLGEAPKLLIYNADNLHTGIPSRFSGSGSFSDFILTISSLQPEDDATYFCLQRESWPYTFGAGTKLELKRADAAPTVSIFPPSSEQLTSGGASVVCFLNNFYPKDINVKWKIDGSERQNGVLNSWTDQDSKDSTYSMSSTLTLTKDEYERHNSYTCEATHKTSTSPIVKSFNRNEC
For the molecule B1, the concentration giving a half-maximal response (EC50) stood at 0.11 nM in the experiment with Human IL-17A and 0.124 nM with Mouse IL-17A.

B2: Bifunctional fusion protein A (other)
heavy: [about 120 residues skipped]GGGSGGGGSGGGGSGGGGSGGGGSQVQLKESGPGLVQPSQTLSLTCTVSGFSLTNYYVHWVRQPPGKGLEWMGGVWNDGDTSYNSVLRSRLSITRDTSKSQVLLKMSSLQTEDTATYYCAREGREGFVGYYVMDAWGPGASVTVSSAKTTAPSVYPLAPVCGDTTGSSVTLGCLVKGYFPEPVTLTWNSGSLSSGVHTFPAVLQSDLYTLSSSVTVTSSTWPSQSITCNVAHPASSTKVDKKIEPRGPTIKPCPPCKCPAPNLLGGPSVFIFPPKIKDVLMISLSPIVTCVVVDVSEDDPDVQISWFVNNVEVHTAQTQTHREDYNSTLRVVSALPIQHQDWMSGKEFKCKVNNKDLPAPIERTISKPKGSVRAPQVYVLPPPEEEMTKKQVTLTCMVTDFMPEDIYVEWTNNGKTELNYKNTEPVLDSDGSYFMYSKLRVEKKNWVERNSYSCSVVHEGLHNHHTTKSFSRTPGK
light: DIQMTQSPSFLSASVGERVTLSCKASQNINKYLDWFQQKLGEAPKLLIYNADNLHTGIPSRFSGSGSFSDFILTISSLQPEDDATYFCLQRESWPYTFGAGTKLELKRADAAPTVSIFPPSSEQLTSGGASVVCFLNNFYPKDINVKWKIDGSERQNGVLNSWTDQDSKDSTYSMSSTLTLTKDEYERHNSYTCEATHKTSTSPIVKSFNRNEC
As to B2, the half-maximal effective concentration (EC50) with Human IL-17A was 0.116 nM; with Mouse IL-17A, 0.108 nM.
